# Test results: paper PMC4336329 (PLoS ONE, 2015)
# In all, about 310,000 compounds went through this assay and about 2,200 (0.71%) showed an effect of 50% or more. The effect is printed as a negative number. The list shows a part of the results.
# Molecular target: human ether-à-go-go-related gene (hERG) potassium channel (human, UniProt Q12809)
# Experiment: primary screen, population patch clamp on CHO cells stably expressing hERG
# Chain of human ether-à-go-go-related gene (hERG) potassium channel (Q12809 whole entry, looked up): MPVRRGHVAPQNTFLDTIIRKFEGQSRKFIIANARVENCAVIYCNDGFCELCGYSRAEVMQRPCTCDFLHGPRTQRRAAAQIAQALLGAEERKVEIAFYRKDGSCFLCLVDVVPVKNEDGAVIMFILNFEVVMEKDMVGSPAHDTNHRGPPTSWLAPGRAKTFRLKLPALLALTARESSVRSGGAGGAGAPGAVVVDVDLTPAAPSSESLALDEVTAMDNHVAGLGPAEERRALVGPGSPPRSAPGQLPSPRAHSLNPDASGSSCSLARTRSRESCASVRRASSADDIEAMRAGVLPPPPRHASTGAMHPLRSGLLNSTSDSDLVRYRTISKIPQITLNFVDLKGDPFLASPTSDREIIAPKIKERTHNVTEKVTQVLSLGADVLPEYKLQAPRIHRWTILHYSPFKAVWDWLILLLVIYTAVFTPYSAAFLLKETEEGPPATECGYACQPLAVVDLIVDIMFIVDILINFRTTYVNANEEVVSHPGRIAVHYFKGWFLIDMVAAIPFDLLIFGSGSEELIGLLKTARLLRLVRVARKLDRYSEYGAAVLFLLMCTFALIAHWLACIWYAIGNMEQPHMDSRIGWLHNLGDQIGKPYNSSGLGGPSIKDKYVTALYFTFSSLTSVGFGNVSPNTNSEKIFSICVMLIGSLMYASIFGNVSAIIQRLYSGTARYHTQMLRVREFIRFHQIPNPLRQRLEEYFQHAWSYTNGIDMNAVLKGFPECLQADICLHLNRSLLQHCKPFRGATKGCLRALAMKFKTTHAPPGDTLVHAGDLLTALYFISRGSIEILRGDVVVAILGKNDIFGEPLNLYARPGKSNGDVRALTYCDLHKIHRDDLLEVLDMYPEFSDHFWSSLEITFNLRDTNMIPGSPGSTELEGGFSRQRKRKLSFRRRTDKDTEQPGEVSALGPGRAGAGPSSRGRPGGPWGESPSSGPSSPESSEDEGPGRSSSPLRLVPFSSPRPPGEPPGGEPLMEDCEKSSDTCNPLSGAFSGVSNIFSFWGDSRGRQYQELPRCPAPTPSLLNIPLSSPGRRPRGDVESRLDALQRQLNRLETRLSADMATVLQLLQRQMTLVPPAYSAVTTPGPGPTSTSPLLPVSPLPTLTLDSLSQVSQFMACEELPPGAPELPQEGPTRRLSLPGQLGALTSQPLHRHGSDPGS
row,SMILES,"hERG current change (%, negative = inhibition) at 1uM [%]"
1,CN(CC(=O)N1CCc2ccccc21)S(=O)(=O)c1cccs1,0.707
2,Cc1ccc(Nc2c(F)c(F)c(F)c(F)c2C(=O)O)c(C)c1,11.9
3,COc1ccc(CCNC(=O)CSc2nnc3ccc(-c4ccncc4)nn23)cc1,4.18
4,COc1cc(N2CCCC2)c(OC)cc1/C=C(/C#N)c1ccc(F)cc1,21.5
5,CCOC(=O)/C=c1\s/c(=C\c2ccccc2C)c(=O)n1CC(=O)NCc1ccc2c(c1)OCO2,4.92
6,Cc1ccccc1N/C(SCc1cccc(Br)c1)=C(/C#N)C(N)=O,4.93
7,Nc1ccccc1SC1CC(=O)N(Cc2ccccc2)C1=O (stereo not shown),10.3
8,Cc1csc(SCCn2c(N3CCN(c4ccccc4)CC3)nc3c2c(=O)[nH]c(=O)n3C)n1,12.5
9,CN(C)CCNC(=O)c1cc(Br)ccc1Cl,9.94
10,Cc1ccc(NC(=O)CSCC(=O)Nc2ccccc2N2CCCCC2)cc1,1.36
11,O=C(NCCCO)/C(=C\c1ccco1)NC(=O)c1ccc(Br)o1,3.05
12,COc1ccc(C(=O)c2oc3ccccc3c2N)cc1,14.3
13,O=C(CSc1nc2ccccc2o1)c1ccccc1,6.81
14,CNC(=S)N(Cc1cc2cc(C)ccc2n2nnnc12)CC(C)(C)CN(C)C,15.1
15,O=C(NC1CCSC1=O)C1CCCCC1 (stereo not shown),9.13
16,CNC(=O)N(O)C1N(NC(=O)Nc2ccccc2)C(=S)SC1(C)C (stereo not shown),12.4
17,COC(=O)c1ccc(OCC(=O)NC(C)(C)C)cc1,5.73
18,COc1cccc(/C=N/NC(=O)c2[nH]c(C)c(C(=O)N/N=C/c3cccc(OC)c3)c2C)c1,12.6
19,CCOC(=O)N1CCC(N2C(=O)c3ccc(C(=O)Nc4ccc(F)cc4F)cc3C2=O)CC1,7.13
20,COc1cc(C(C)=O)ccc1OC(C)C(=O)Nc1ccc(S(=O)(=O)N2CCCC2)cc1 (stereo not shown),10.2
21,COc1ccc(NC(=O)NCCC2=CCCCC2)cc1,8.08
22,Cc1ccc(/C=N/NC(=O)Cc2c(F)cccc2Cl)s1,4.6

row,SMILES,"hERG current change (%, negative = inhibition) at 1uM [%]"
1,Cc1ccc(C(=O)N/C(=C\c2cccs2)C(=O)NCC2CCCO2)cc1C (stereo not shown),7.99
2,Fc1cccc(NC(=S)NC2CCCCCCC2)c1,18.9
3,Cc1cccc(-n2c(O)c(/C=N/N3CCOCC3)c(=O)[nH]c2=S)c1,-1.45
4,O=C(O)/C=C\C(=O)Nc1ccc(N2CCN(c3cccc(Cl)c3)CC2)cc1,9.88
5,COc1ccccc1Cn1c(=S)[nH]c2cc(C(=O)N3CCC(C(N)=O)CC3)ccc2c1=O,17.1
6,Cc1cc(F)c(F)c(C(=O)N2CCN(C)CC2)c1Cl,17.8
7,CCCn1c(SCC(=O)Nc2ccccc2-c2ccccc2)nnc1-c1ccoc1C,5.18
8,O=C(c1cnn(C(=O)c2ccccc2)c1)c1ccccc1O,9.27
9,O=C(c1ccc(-c2ccc(Cl)cc2)o1)N1CCN(S(=O)(=O)c2cccs2)CC1,7.65
10,S=C(Nc1ccc(-c2nc3ccccc3[nH]2)cc1)Nc1cccnc1,-17.2
11,O=C(Nc1ccon1)c1cccc(C(F)(F)F)c1,13
12,O=C(NCC(=O)N(c1ccccc1F)C(C(=O)NC1CCCC1)c1ccncc1)c1ccco1 (stereo not shown),9.08
13,O=C(NCc1ccccc1)c1onc(CSc2ccc(F)c(F)c2)c1C(=O)NCc1ccccc1,8.58
14,CCOC(=O)C1CCN(Cc2ccc(OCc3ccccc3)cc2)CC1.O=C(O)C(=O)O,-24.2
15,Cc1ccc(NC(=O)C2=C(O)c3ccccc3N(C)S2(=O)=O)cc1,14.1
16,Nc1nc(-c2ccc3c(c2)CCC(=O)N3)cs1,15.7
17,CC1CCCC(NC(=O)C2CCN(S(=O)(=O)N3CCC4(CC3)OCCO4)CC2)C1C (stereo not shown),1.82
18,COc1cc(CNC(C)C)ccc1OCC(=O)Nc1cccc2ccccc12,10.2
19,Cc1ccc(-c2nnc(Nc3ccc4c(c3)OCO4)c3ccccc23)cc1S(N)(=O)=O,5.71
20,Cc1nnc(SCC(=O)NCCOc2ccc(Cl)cc2)n1-c1ccccc1,-9.59
21,CCN1C(=O)C2(/C(=C(\O)c3ccc4c(c3)OCCO4)C(=O)C(=O)N2CCCOC)c2ccccc21 (stereo not shown),19.6
22,CCOc1ccc(CCNC(=O)COC(=O)c2cc(=O)[nH]c3ccccc23)cc1OCC,21.2

row,SMILES,"hERG current change (%, negative = inhibition) at 1uM [%]"
1,COc1ccc(Nc2nnc(SCC(=O)c3cc4ccccc4o3)s2)cc1,10.9
2,Cc1nc(CNS(=O)(=O)c2ccc3c(c2)CCCC3)cs1,11.1
3,Cc1ccc2oc(=O)n(CC(=O)O)c2c1,16.2
4,O=C(O)C1Nc2c(O)cccc2C2C=CCC12 (stereo not shown),9.09
5,CCCc1cc(=O)oc2cc(OCC(=O)NCCCn3ccnc3)ccc12,-9.74
6,CCS(=O)(=O)NCc1nnc2n1-c1ccc(Cl)cc1C(c1ccccc1)=NC2,9.43
7,CCCn1nc(C(=O)Nc2ccc3c(c2)OCCO3)c2ccccc2c1=O,8.24
8,CCOC(=O)c1cc(C)[nH]c1C,6.28
9,CS(=O)c1ccccc1COC(=O)Nc1ccc(Cl)cc1 (stereo not shown),-3.41
10,COc1ccc(/C=N/NC(=O)c2cc(C34CC5CC(CC(C5)C3)C4)[nH]n2)cc1O,4.54
11,COc1cccc(NC(=O)c2ccc(OC(F)(F)F)cc2)c1,5.93
12,CCOc1ccc(C2C=C(c3ccccc3)Nc3nnnn32)cc1 (stereo not shown),10.4
13,Cc1ccc2[nH]cc(CCNC(=O)Nc3ccccc3)c2c1,1.54
14,C=CCOC(=O)C1=C(C)NC(=O)NC1c1ccc(N(C)C)cc1 (stereo not shown),7.84
15,CC(C)CN(C(=O)CSc1nnc(-c2ccco2)o1)c1c(N)n(Cc2ccccc2)c(=O)[nH]c1=O,19.2
16,CC1=Nc2ccccc2/C1=C/c1nc(-c2ccc(C)s2)oc1O,13.8
17,CCOc1ccc2nc(Cl)c(CN(C(=O)c3cnccn3)C3CCCC3)cc2c1,12.1
18,Fc1ccccc1CN1CCN(c2ncccn2)CC1,10.5
19,NC(=S)NNc1ccnc2cc(Cl)ccc12,3.17
20,Cc1ccccc1OCC(=O)N/N=C/c1ccccn1,14.6
21,COc1cccc2sc(=NC(=O)CS(=O)(=O)c3ccc(Cl)cc3)n(C)c12,-12.8
22,COc1cccc(C2CC(c3ccc(Cl)cc3)n3nc(N)nc3N2)c1 (stereo not shown),0.765

row,SMILES,"hERG current change (%, negative = inhibition) at 1uM [%]"
1,CCCc1cc(=O)oc2cc(C)c(CN3CCCC3)c(O)c12,16.3
2,Cc1nnc(SCC2=C(C(=O)[O-])N3C(=O)[C@@H](NC(=O)Cn4cnnn4)[C@H]3SC2)s1.[Na+],9.17
3,CCOC(=O)c1cc2sc(C)cc2n1CC(=O)N1CCN(C(=O)c2ccco2)CC1,4.59
4,O=C(O)[C@@H]1C[C@H]1[C@@H](NP(=O)(c1ccccc1)c1ccccc1)c1ccccc1,5.4
5,COC(=O)C1CCN(C(=O)NC(C)(C)C)CC1,9.98
6,CC(C)C(NC(=O)c1ccc(F)cc1)C(=O)OCC(=O)N1CC(=O)Nc2ccccc21 (stereo not shown),3.46
7,COc1ccc(Nc2nc(NC(C)(C)C)nc(N3CCCC3)n2)c(OC)c1,14.4
8,O=C(Nc1cccc(C(=O)N2CCCC2)c1)c1ccccc1,7.23
9,COc1ccc(NC(=S)N2CCC(N(C)CCN3CCOCC3)CC2)cc1,11.6
10,COC(=O)C(Cc1c[nH]c2ccccc12)NC(=O)C(=O)c1c[nH]c2ccccc12 (stereo not shown),8.23
11,CCOC(=O)c1[nH]nc(C(=O)c2ccc(Br)cc2)c1O,3.11
12,O=C(NCCN1CCOCC1)c1cc(=O)[nH]c2ccc(Br)cc12,0.61
13,Cc1cccc(N2CCN(C3=NC(=O)C(=C4CCCCC4)S3)CC2)c1,14.9
14,Cc1ccc(-c2cc(C(=O)Nc3cccc(S(=O)(=O)N(C)C)c3)c3ccccc3n2)o1,15.2
15,O=C(CN1C(=O)c2ccccc2C1=O)Nc1ccc(S(=O)(=O)N2CCOCC2)cc1,9.17
16,CCN(CC)S(=O)(=O)c1cccc(C(=O)Nc2cc(C)on2)c1,9.74
17,CC(C)(C)OC(=O)COc1cc(OCC(=O)OC(C)(C)C)c2c(=O)cc(-c3ccccc3)oc2c1,2.95
18,COc1ccc(NC(=O)N2CCN(c3cccc(C(F)(F)F)c3)CC2)cc1,8.34
19,Cc1cccc(NC(=O)C2CCCN2S(=O)(=O)c2ccc(Cl)cc2)n1 (stereo not shown),2.36
20,COC(=O)C1=C(N)Oc2cc(C)n(CC3CCCO3)c(=O)c2C1c1ccc(Cl)cc1 (stereo not shown),13.4
21,COCCN(CCOC)C(=O)c1ccc(NS(=O)(=O)c2ccc3c(c2)OCCO3)cc1,14.3
22,COc1ccc(C(CNC(=O)CCNS(=O)(=O)c2ccc(C)cc2)N2CCOCC2)cc1 (stereo not shown),-12.5
